± gives the standard deviation of the averaged measurements. Whole data set: some 33,000 sequences, median “E-score (dimensionless, -0.5 to 0.5)” near -0.049, cut for the highest 2% near 0.37. The list shows a part of the results.
Each sequence was assayed on T1, PmTbr T-box DNA-binding domain (GST fusion) (assay: PBM E-score of 8-mer (E-score (dimensionless, -0.5 to 0.5)); Tbr is Tbrain of the sea star Patiria miniata (Pm) or the sea urchin Strongylocentrotus purpuratus (Sp); higher = stronger binding preference; most listed sequences are background and not binding sites). Details: the construct has about 5 more residues each side.
T1 sequence: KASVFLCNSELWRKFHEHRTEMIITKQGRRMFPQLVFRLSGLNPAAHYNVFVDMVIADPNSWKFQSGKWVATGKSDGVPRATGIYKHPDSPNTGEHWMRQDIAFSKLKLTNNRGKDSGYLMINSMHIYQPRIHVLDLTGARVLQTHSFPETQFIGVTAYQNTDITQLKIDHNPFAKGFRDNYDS
Method in brief: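 Each ungapped 8-mer received an enrichment E-score from the Universal PBM Analysis Suite, averaged over duplicate arrays. The proteins were Tbr T-box DNA-binding domains, covering the whole T-box plus about five flanking residues, fused to GST and expressed in BL21 E. coli at 20 °C before glutathione affinity purification. Universal Agilent oligonucleotide arrays were made double-stranded by primer extension and incubated with 200 nM protein in PBS (pH 7.5). The arrays were then scanned and quantified, and every 8-mer was scored from probe intensities.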
For GTGATGAA, the “PBM E-score of 8-mer” value was 0.268 ± 0.0068. With TCCCAAGA the “PBM E-score of 8-mer” value was -0.0329 ± 0.012. With GTAATGCA the “PBM E-score of 8-mer” value was -0.254 ± 0.07. With AGCGGTGC the “PBM E-score of 8-mer” value was 0.045 ± 0.057. GATATTAC was tested, and the “PBM E-score of 8-mer” value was -0.154 ± 0.026. For CGCGTTTC, the “PBM E-score of 8-mer” value was 0.00403 ± 0.032. For CATGCAGA, the “PBM E-score of 8-mer” value was -0.208 ± 0.025. In the case of AATCGTAT, the “PBM E-score of 8-mer” value is reported as -0.15 ± 0.07. In the case of CTAGGCTA, the “PBM E-score of 8-mer” value is reported as -0.0349 ± 0.0095. With AGCGGCAC the “PBM E-score of 8-mer” value was 0.168 ± 0.017. In the case of AGGTGTAG, the “PBM E-score of 8-mer” value is reported as 0.408 ± 0.0046. With AAATATTC the “PBM E-score of 8-mer” value was -0.205 ± 0.012. In the case of GGGTAACC, the “PBM E-score of 8-mer” value is reported as -0.125 ± 0.075. CGAGTAAA was tested, and the “PBM E-score of 8-mer” value was -0.0766 ± 0.038. In the case of GTCTGGGA, the “PBM E-score of 8-mer” value is reported as -0.171 ± 0.033. In the case of AAATAGAA, the “PBM E-score of 8-mer” value is reported as -0.144 ± 0.045. CCCTTGGC was tested, and the “PBM E-score of 8-mer” value was 0.0967 ± 0.0044. With GGCACTAC the “PBM E-score of 8-mer” value was -0.0196 ± 0.072. With CGATTTAG the “PBM E-score of 8-mer” value was -0.0692 ± 0.0091. GCGCTAAA was tested, and the “PBM E-score of 8-mer” value was 0.394 ± 0.012. For GTTCGTTA, the “PBM E-score of 8-mer” value was 0.0349 ± 0.023. AAGTCGGT was tested, and the “PBM E-score of 8-mer” value was 0.06 ± 0.002. CGGTTGAG was tested, and the “PBM E-score of 8-mer” value was -0.149 ± 0.036. With ACTATTCC the “PBM E-score of 8-mer” value was -0.0748 ± 0.068. In the case of ATGTGCGG, the “PBM E-score of 8-mer” value is reported as 0.0803 ± 0.028. For GGTACTGA, the “PBM E-score of 8-mer” value was -0.195 ± 0.048. GAGTCGCC was tested, and the “PBM E-score of 8-mer” value was 0.00916 ± 0.036. With ACCTTGCC the “PBM E-score of 8-mer” value was 0.00429 ± 0.0073. In the case of ACGCCAAC, the “PBM E-score of 8-mer” value is reported as 0.137 ± 0.033. In the case of GGCCGAGA, the “PBM E-score of 8-mer” value is reported as 0.0414 ± 0.00058. For TGCTGGAA, the “PBM E-score of 8-mer” value was -0.261 ± 0.065. In the case of GGCGTTGA, the “PBM E-score of 8-mer” value is reported as 0.313 ± 0.015. In the case of CAACACAG, the “PBM E-score of 8-mer” value is reported as 0.143 ± 0.018. GTTACTGA was tested, and the “PBM E-score of 8-mer” value was -0.0553 ± 0.05. For AACGCGTA, the “PBM E-score of 8-mer” value was 0.138 ± 0.0028. AGAACACG was tested, and the “PBM E-score of 8-mer” value was 0.167 ± 0.045.

Source: the supplement of paper PMC4166925
